Reference: the supplement of paper PMC4604168 (melanoma cell lines)
The list shows a part of the results. Repeats are few or missing, and single values can be far off.

system: A101D; assay: cell count relative to DMSO control; melanoma cells; higher = more viable cells; conditions: library dose: standard library concentration; 72 h
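Also: cells treated in 1,536-well plates, then fixed and DAPI-stained, with nuclei counted from automated high-throughput microscope images.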

SMILES | cell count
O=C(O)[C@@H]1[O][Sb](=[O])([O][Sb]2(=[O])[O][C@H]([C@H](O)CO)[C@H](O)[C@H](C(=O)O)[O]2)[O][C@H]([C@H](O)CO)[C@@H]1O (stereo not given in full) [stibogluconate] + COc1cc2c(Oc3ccc4[nH]c(C)cc4c3F)ncnc2cc1OCCCN1CCCC1 [cediranib] (first compound 10 µM, partner dose 2 µM) | 78.2%
O=C(Nc1cc(C(F)(F)F)cc(C(F)(F)F)c1)c1cc(Cl)ccc1O + CO[C@@H]1[C@H](N(C)C(=O)c2ccccc2)C[C@H]2O[C@]1(C)n1c3ccccc3c3c4c(c5c6ccccc6n2c5c31)C(=O)NC4 [Midostaurin] (first compound 0.08 µM, partner dose 0.4 µM) | 52.7%
O=C(O)[C@@H]1[O][Sb](=[O])([O][Sb]2(=[O])[O][C@H]([C@H](O)CO)[C@H](O)[C@H](C(=O)O)[O]2)[O][C@H]([C@H](O)CO)[C@@H]1O (stereo not given in full) [stibogluconate] + CN(NC(=O)CC(=O)NN(C)C(=S)c1ccccc1)C(=S)c1ccccc1 [STA4783] (first compound 10 µM, partner dose 0.03 µM) | 75.6%
O=C(Nc1cc(C(F)(F)F)cc(C(F)(F)F)c1)c1cc(Cl)ccc1O + OCCn1cc(-c2cnc3nnn(Cc4ccc5ncccc5c4)c3n2)cn1 [PF04217903] (first compound 0.08 µM, partner dose 5 µM) | 79.5%
Cc1cc(N2CCOCC2)cc2[nH]c(-c3c(NC[C@@H](O)c4cccc(Cl)c4)cc[nH]c3=O)nc12 + CN(C)S(=O)(=O)c1ccc2c(c1)/C(=C/c1cc3c([nH]1)CCCC3)C(=O)N2 [SU6656] (first compound 1 µM, partner dose 2 µM) | 68.3%
